In ChEMBL document CHEMBL4888484, “Replenishing the malaria drug discovery pipeline: Screening and hit evaluation of the MMV Hit Generation Library 1 (HGL1) against asexual blood stage Plasmodium falciparum ,using a nano luciferase reporter read-out” (2022):
In all, about 150,000 compounds went through this assay and about 540 (0.36%) showed an effect of 50% or more. The list shows a part of the results.

What follows are molecules tested on Plasmodium falciparum (assay: Primary screen in NF54 nanoGlo assay, in single point, at 2uM, 72h; a lower Z score goes with more inhibition). Details: timepoint 72 hour.
Format: functional, Erythrocyte

SMILES | % Inhibition [%] | Z score
Cc1ccc(OCc2noc(C3CC3)n2)nc1 | -14 | 2.29
Cc1ccc(-c2nc(C#N)c(S(=O)(=O)N3CCN(c4ccccc4)CC3)o2)cc1 | -11 | 1.51
CC(C)(C)n1cc(C(=O)N2CCN3CCOc4cccc2c43)cn1 | -17 | 2.48
COc1ccc([C@H](C)NCc2ccc(N3CCOCC3)cc2)c(OC)c1 | 0 | -0.05
CCC(=O)N1CCN(S(=O)(=O)c2ccc(C)cc2)[C@H]1C | 37 | -1.06
COc1nc(-c2cccc(C(=O)N(C)[C@H]3COC[C@@H]3O)c2)nn1C | -2 | 0.33
N#Cc1ccc(F)c(CS(=O)(=O)N2CCC[C@H](Cn3cncn3)C2)c1 | 3 | -0.47
O=C(c1ccc2n[nH]c(=O)n2c1)N1CC(=O)N(C2CC2)C1 | 0 | 0.01
Cc1cccc(CC(=O)N(CC2CCN(C3Cc4ccccc4C3)CC2)C[C@H]2CCCO2)c1 | -2 | 0.31
Cn1c(C(=O)[C@H](C#N)C(=O)Nc2ccccc2F)cc2ccccc21 | -4 | 0.68
CCC[C@@H](CN(C)C1CC[S+]([O-])CC1)c1ccccc1 (stereo partly drawn) | -4 | 0.56
Cc1cc(C)c(NS(=O)(=O)c2ccc(CC(=O)N3CCCCC3)s2)c(C)c1 | -1 | 0.24
COc1ccc(CCNC(=O)c2csc(NC(C)C)n2)cc1 | -9 | 1.37
Cn1c(N2CCC[C@]3(C2)CC3(F)F)nc2cnccc21 | 0 | 0.01
O=C(NCc1cn2c(n1)C(=O)N(Cc1ccccc1)CC2)c1cncnc1 | -10 | 1.33
COc1cccc(-c2ccc(C)nc2N)c1C(=O)N(C(C)C)C(C)C | -10 | 1.39
CC(C)Cn1c(=O)[nH]c2cc(-c3nc(-c4ccc(F)cc4)no3)ccc2c1=O | 2 | -0.27
O=C(Nc1cccc2ncccc12)c1cccc(-n2cnnn2)c1 | -6 | 0.9
COc1ccccc1CNC(=O)Cn1c(C)cc(C)c(-c2nc(-c3cccc(Cl)c3)no2)c1=O | -12 | 1.55
Cc1cccc(-n2nc(-c3nc(-c4ccc5c(c4)OCO5)no3)c3ccccc3c2=O)c1 | 13 | -1.46
OC[C@H](CC1OCCO1)Nc1ccc(C(F)(F)F)cn1 | -2 | 0.32
CCc1ncc2c(n1)CN(C(=O)c1cnc(CN3CCCC3)s1)C2 | -4 | 0.72
NC(=O)c1cnn(Cc2nnnn2-c2ccccc2)c1 | -5 | 0.85
Cc1nn(-c2ccccc2)c(N2CCC(C(=O)Nc3ccc(F)c(F)c3)CC2)c1-n1c(C)ccc1C | -12 | 1.65
COc1ncccc1C(=O)N[C@H]1CC[C@@H](CO)C1 | -7 | 0.92
CN1CCCN(C[C@@H]2CN(Cc3cccc(Cl)c3F)C[C@@H]2CO)CC1 | -2 | 0.39
CCN(C)C[C@H]1CCN(C(=O)Nc2cc(-c3ccco3)ccc2F)C1 | -16 | 1.5

SMILES | % Inhibition [%] | Z score
O=C1Nc2ccccc2CCC1N1CCOC(c2cccc(O)c2)C1 (stereo not drawn) | 5 | -0.89
CC(=O)c1cccc(OCC(=O)Nc2ccccc2-c2nc3ccccc3[nH]2)c1 | -8 | 1.28
COC(=O)c1ccc(N2CCC[C@H](CN3CCCCCC3)C2)nn1 | -10 | 1.39
CC(C)[C@@H](c1ccccc1Cl)N(C)C(=O)c1csc(CN)n1 | -4 | 0.62
Cc1nccn1-c1ncc(NC(=O)Cc2ccccc2)cn1 | -6 | 0.86
Cc1nsc(NC(=O)N2CC[C@@H]3CCCC[C@H]3C2)n1 | -2 | 0.42
Cc1cccc(C)c1OCCC(=O)N1Cc2c[nH]nc2[C@@H](C)C1 | 5 | -0.77
Cc1nnc(N2CCC(C)CC2)[nH]c1=O | -3 | 0.44
CN(Cc1ccccc1)[C@@H]1[C@H](O)[C@H](CO)O[C@@H]1CNC(=O)Nc1ccsc1 | 19 | -2.17
CCc1cccc(-c2nc(-c3cccc(NC(=O)c4ccccc4F)c3)no2)n1 | -15 | 2.76
Cc1nnc([C@@]23COC[C@@H]2CN(C(=O)c2cccc4c2OCO4)C3)o1 | -14 | 2.1
Cc1c[nH]c(CN(C)Cc2coc(C(C)C)n2)n1 | -11 | 1.33
Cc1noc(C)c1CCc1ncnn1Cc1ccccc1 | 2 | -0.4
Cc1cc(N2CCC[C@H](Cn3cncn3)C2)n2ncnc2n1 | -7 | 0.91
Nc1nonc1C(=Nc1ccc(Br)cc1)NO | -1 | 0.15
CS(=O)(=O)N1CCC[C@@H]1CCc1noc(-c2ccccn2)n1 | 1 | -0.23
COc1cccc(-c2ccc(N3CCC(N(C)C)CC3)cc2)c1 | -1 | 0.2
CCc1noc([C@H](C)NC(=O)c2n[nH]c(C)c2Cl)n1 | -11 | 2.06
CCc1nccn1C[C@H](C)NC1(Cc2ccccc2)CC1 | 4 | -0.5
Cc1scc(C(=O)N[C@H]2C[C@@H](C(=O)O)C2)c1C | -5 | 0.81
Cc1c(Cl)c(C(=O)N2CCn3nc(Cc4ccccc4)cc3C2)nn1C | -7 | 0.94
COCCN1CCC[C@@]2(CCN(c3nc(N(C)C)nc(C)c3C)C2)C1 | -5 | 0.58
CCn1ccc(-c2nc(CCOC)nn2[C@H]2CCS(=O)(=O)C2)n1 | -13 | 2.66
O=C(Cc1noc(C2CC2c2ccccc2Cl)n1)NC1CCCC1 (stereo not drawn) | -4 | 0.49
CCOC(=O)c1c(C)nn(C2CCCCC2)c1N | -9 | 1.69
CCN(C(=O)NCc1ccc(N)cc1Cl)C(C)C | -12 | 1.35
COc1ccc([C@@H]2Cn3nnc(C(=O)N4CCC(C(=O)NCc5ccc(C)cc5)CC4)c3CO2)cc1 | -11 | 1
